PubChem BioAssay AID463173 (ICCB-Longwood Screening Facility, Harvard Medical School, 2010)
The campaign covered roughly 52,000 compounds. About 1,700 (3.3%) were called active. Rule as the data show it: active = survival mostly below about 52% (no sharp cut-off); inactive = mostly above about 56%. Some of the results follow.

What follows are compounds tested on Wild type (assay: S. aureus survival, RN4220 and DeltatarO strains – OD600, teichoic acid synthesis inhibitors, primary screen (AID 463173)). Conditions: S. aureus RN4220 wild type/DeltatarO growth, OD600, 18 h, hits give low values, screened at 18.75 µg/mL (by protocol).

Row | SMILES | survival
1 | Cc1nc(-n2nc(C)c(Cc3ccc4c(c3)OCO4)c2C)sc1C(=O)Nc1cccc(Cl)c1 | inactive: 75%
2 | CCN(CC)CCNC(=O)c1cc(-c2ccc(Br)s2)nc2ccccc12 | inactive: 35%
3 | Cc1ccc(CN2CCCn3nc(C(=O)NCc4ccc(OC(C)C)cc4)cc3C2=O)cc1 | inactive: 84%
4 | CSc1cccc(NC(=O)CC(c2cccs2)N2Cc3ccccc3C2=O)c1 (configuration not stated) | inactive: 118%
5 | COc1cc(-c2noc(CN3CCN(c4cccc(Cl)c4)CC3)n2)cc(OC)c1OC | inactive: 81%
6 | CCOc1ccccc1NC(=O)N1CCN(C)c2ncccc21 | inactive: 75%
7 | Cc1ccc(NC(=O)CSc2n[nH]c(-c3ccc(F)cc3)n2)cc1F | inactive: 121%
8 | CCc1ccc2c(c1)c1nnc(SCC(=O)NC3CCCCC3C)nc1n2C (configuration not stated) | inactive: 108%
9 | CCOC(=O)c1cccc(NC(=O)c2ccc3nc(C(C)C)oc3c2)c1 | inactive: 93%
10 | COc1ccc2nc(NC(=O)c3nc(S(=O)(=O)Cc4ccccc4)ncc3Cl)sc2c1 | inactive: 87%
11 | CSc1ccc(CCNC(=O)CCc2c(C)nc3c(c(C)nn3-c3ccc(C)c(C)c3)c2C)cc1 | inactive: 77%
12 | Cc1cc2nc(-c3ccc(SCC#N)nc3)[nH]c2cc1C | inactive: 123%
13 | Cc1ccc(CN2C(=O)CN(C3CCC(C)CC3)C(=O)C2c2ccc(F)cc2)cc1 (configuration not stated) | inactive: 119%
14 | CCC(C(=O)Nc1nnc2n1CCS2)c1ccccc1 (configuration not stated) | inactive: 66%
15 | O=C(Nc1cccc(Cl)c1Cl)c1cc2nc(-c3ccc(Cl)cc3)cc(C(F)(F)F)n2n1 | inactive: 65%
16 | CCCN(CCC)CCNC(=O)c1cc2c(-c3ccc(Cl)cc3)nn(C)c2s1 | inactive: 81%
17 | NS(=O)(=O)c1ccc(NC(=O)/C=C/C(=O)O)cc1 | inactive: 106%
18 | COc1ccc(Cn2c(=O)n(-c3ccccc3C)c(=O)c3c4c(sc32)CN(C(C)=O)CC4)cc1 | inactive: 76%
19 | CC(C)CC(=O)Nc1ccc2nc(SCC(=O)N3CCCC3)sc2c1 | inactive: 88%
20 | COc1ccc(NC(=O)N2CCc3c(sc4c3CCCC4)C2c2ccccc2OC)cc1 (configuration not stated) | inactive: 81%
21 | Cc1ccc2c(c1)N(CC(=O)NC(C)(C)C)C(=O)C(C)O2 (configuration not stated) | inactive: 97%
22 | COc1ccc2[nH]c(=O)c(CN(C3CCCC3)S(=O)(=O)c3cccc4nsnc34)cc2c1 | inactive: 95%

Row | SMILES | survival
23 | Cc1ccc(NC(=O)CCn2nc(C)c(S(=O)(=O)N3CCCCC3)c2C)cc1Cl | inactive: 134%
24 | CCOc1ccc(N(CC(=O)Nc2cc(C)ccc2C)S(=O)(=O)c2c(C)[nH]c(=O)[nH]c2=O)cc1 | inactive: 74%
25 | CCOC(=O)c1c(C)sc(-c2c(-c3cc(C)ccc3C)[nH]c3c2c(=O)n(C)c(=O)n3C)c1O | inactive: 98%
26 | CC1(C)C(=O)NCCN1C(=O)CCC(=O)O | inactive: 93%
27 | CCN(c1ccc(C)cc1)S(=O)(=O)c1nnc(NC(=O)C2CCCCC2)s1 | inactive: 118%
28 | Cc1ccc(C)c(CN2C(=O)c3ccccc3S(=O)(=O)c3ccc(C(=O)N4CCc5ccccc54)cc32)c1 | inactive: 82%
29 | Cc1ccc(OCC(=O)NCC(c2ccc(Cl)cc2)N2CCCCC2)cc1 (configuration not stated) | inactive: 83%
30 | CCCNC(=O)CSc1nc2ccccc2nc1Cc1ccc(Cl)cc1 | inactive: 91%
31 | CCC1=Nc2cc(C(=O)NCC(C)c3ccccc3)ccc2Sc2ccc(C)cc21 (configuration not stated) | inactive: 77%
32 | Cc1ccc(CCNC(=O)c2cn(C)c3ccc(S(=O)(=O)N(C)C4CCCCC4)cc3c2=O)cc1 | inactive: 93%
33 | CCn1c(CNC(=O)c2ccc(OC)cc2)nnc1SCC(=O)Nc1ccccc1 | inactive: 122%
34 | COC(=O)c1ccc(NC(=O)CCc2c(C)nc3c(-c4ccccc4)c(C)nn3c2C)cc1 | inactive: 75%
35 | C=CCn1c(O)c(CN2CCN(Cc3ccccc3)CC2)c(C)c(C#N)c1=O | inactive: 113%
36 | COc1ccc(-n2c(C)c(C(C)=O)c3cc(OC(=O)c4ccc(C)cc4)ccc32)cc1 | inactive: 73%
37 | CCOC(=O)c1ccc(OCC2c3cc(OC)c(OC)cc3CCN2C(=O)c2ccc(S(=O)(=O)N3CCCC3)cc2)cc1 (configuration not stated) | inactive: 70%
38 | COc1cccc(CSc2nnc(-c3ccc(F)cc3)o2)c1 | inactive: 113%
39 | Cc1ccc(Cn2cc(C(=O)c3ccc(F)cc3)c(=O)c3cc4c(cc32)OCO4)cc1 | inactive: 73%
40 | COc1ccc(CNS(=O)(=O)c2cc3c(cc2C)N(C)CCO3)cc1 | inactive: 87%
41 | CCOC(=O)Cn1c(=O)n(CC2CCCO2)c2nc(-c3ccccc3F)nc(C(N)=O)c21 (configuration not stated) | inactive: 57%
42 | Cc1cccc(NC(=O)c2cc(S(=O)(=O)NCc3ccc4c(c3)OCO4)ccc2F)c1C | inactive: 78%
43 | CCn1nnc2cc(C(=O)Nc3cccc(Cl)c3C)ccc21 | inactive: 75%
44 | COc1ccc(Cn2c(CNS(=O)(=O)c3ccc(C)c(C)c3)nc3cccnc32)cc1 | active: -1%

Row | SMILES | survival
45 | O=C(NCc1ccc2c(c1)CCN2C(=O)c1ccccc1)Nc1cc(F)ccc1F | inactive: 113%
46 | CCOC(=O)Cc1ccc(NC(=O)Nc2ccccc2OCc2cc(=O)n3ccccc3n2)cc1 | inactive: 75%
47 | COc1ccc(C)cc1S(=O)(=O)NCC(c1cccs1)S(=O)(=O)c1ccc(C)cc1 (configuration not stated) | inactive: 73%
48 | CC(Oc1ccc(F)cc1)C(=O)Nc1nc(-c2ccc(F)cc2)ns1 (configuration not stated) | active: -1%
49 | CCN1CCN(c2ncnc3c2cnn3-c2ccc(C)c(Cl)c2)CC1 | inactive: 123%
50 | COc1ccc(-c2noc(-c3ccc(N4CCCC4)c([N+](=O)[O-])c3)n2)cc1 | inactive: 119%
51 | COc1ccc(-c2nc3scc(CCNS(=O)(=O)c4ccccc4F)n3n2)cc1 | inactive: 57%
52 | CCCCc1nn2c(=O)cc(COC(=O)c3cccc(NC(=O)COc4ccccc4)c3)nc2s1 | inactive: 89%
53 | Cc1ccc(C2=NN(CC(=O)NCCCN(CC(C)C)CC(C)C)C(=O)CC2)cc1 | inactive: 84%
54 | O=C(NC1CCCCCC1)C1CCN(C(=O)N2CCOc3ccc(Cl)cc32)CC1 | inactive: 84%
55 | Cc1cc(/C=C(\C#N)C(=O)N2CCc3ccccc3C2)c(C)n1C | inactive: 105%
56 | CCOCCCNC(=O)c1ccc2c(c1)NC(=O)C(CS(=O)(=O)Cc1ccc(F)cc1Cl)N2 (configuration not stated) | inactive: 85%
57 | Cc1cc2[nH]c(=O)c(=O)[nH]c2cc1S(=O)(=O)NCc1ccc(F)cc1 | inactive: 121%
58 | CC(OC(=O)C1CCCCC1)c1nc2ccccc2[nH]1 (configuration not stated) | inactive: 116%
59 | Cc1cc(C)n(-c2nc3ccccc3nc2Nc2ccc(C(C)C)cc2)n1 | active: 5%
60 | Cc1cc(C)c(NC(=O)C(C)n2c(=O)cc(C)c3c(C)nn(-c4ccccc4)c32)c(C)c1 (configuration not stated) | inactive: 68%
61 | CCN(CCCNC(=O)CSc1cc(=O)n(C)c2ccccc12)c1ccccc1 | inactive: 77%
62 | O=C(Nc1ccc(Cl)cc1Cl)c1cc(S(=O)(=O)N2CCC3(CC2)OCCO3)ccc1F | inactive: 72%
63 | CCOc1cccc(NC(=O)C2CC(=O)N(C)C(=Nc3cccc(OC)c3)S2)c1 (configuration not stated) | inactive: 84%
64 | O=C(NCc1cccc(F)c1)C1CCN(c2nc3ccccc3nc2C(F)(F)F)CC1 | inactive: 83%
65 | CC(=O)N1CCc2c(sc3c2c(=O)n(-c2ccccc2)c(=O)n3CC(=O)c2ccc(Cl)cc2)C1 | inactive: 91%
66 | COCCNC(=O)CCn1c(=O)c2cc(OC)c(OC)cc2n(CC(=O)Nc2ccc(F)c(Cl)c2)c1=O | inactive: 66%

Row | SMILES | survival
67 | O=C(O)c1ccc(Nc2nc3ccccc3c3nncn23)cc1 | inactive: 90%
68 | COc1ccccc1NC(=O)C(Cc1ccccc1)NS(=O)(=O)c1ccc2c(c1)CCN2C(C)=O (configuration not stated) | inactive: 80%
69 | CC(=O)N1CCOc2cc(S(=O)(=O)NCc3ccccc3Cl)c(C)cc21 | inactive: 81%
70 | Cc1cc(C)c(NC(=O)Cn2c(=O)n(-c3cccc(C(F)(F)F)c3)c(=O)c3c(C)c(C)sc32)c(C)c1 | inactive: 87%
71 | Nc1ccc(N2CCOCC2)cc1C(F)(F)F | inactive: 110%
72 | CCc1ccccc1Nc1nn2c(=O)c3ccc(C(=O)NCc4ccc(C)cc4)cc3nc2s1 | inactive: 92%
73 | COCCCNC(=O)c1ccc(Cn2c(=O)c3ccccc3n(CC(N)=O)c2=O)cc1 | inactive: 71%
74 | CC(C)(C)C(=O)Nc1cc(-c2cccc(Br)c2)nn1-c1ccccc1 | inactive: 68%
75 | CCC(=O)N1c2ccccc2CC1C(=O)NCCCN1CCN(c2cc(C)ccc2C)CC1 (configuration not stated) | inactive: 136%
76 | COc1ccc(-c2cc3nc(N)cc(=O)n3[nH]2)cc1 | inactive: 133%
77 | CCN(C(=O)c1ccc2c(c1)N(Cc1cccc(Cl)c1)C(=O)c1ccccc1S2=O)c1ccccc1 (configuration not stated) | active: 0%
78 | CC(C)c1ccc2oc(-c3ccc(Cl)c(NC(=O)c4cccs4)c3)nc2c1 | active: 2%
79 | COC(=O)C1=C(N)OC2=C(C(=O)CCC2)C1c1ccc(OC)cc1 (configuration not stated) | inactive: 118%
80 | O=C(NCCCc1nc2ccccc2n1Cc1ccc(F)cc1)C1CCCCC1 | inactive: 98%
81 | Cc1ccc(C)c(CSc2nc3c([nH]c4ccccc43)c(=O)n2C)c1 | inactive: 68%
82 | COc1ccc(NC(=O)c2cc(S(=O)(=O)N3CCOCC3)cn2C)cc1Cl | inactive: 111%
83 | Cc1ccc(C(=O)Nc2ccc(F)cc2)cc1S(=O)(=O)N1CCCCCC1 | inactive: 88%
84 | Cc1cccc(C)c1OCc1cc(=O)n2c(-c3ccccc3)csc2n1 | inactive: 17%
85 | Cn1nc(-c2ccc(OCC(=O)Nc3cccc(C(F)(F)F)c3)cc2)c2ccccc2c1=O | inactive: 64%
86 | O=C1CS(=O)(=O)C2(C(=O)Nc3ccccc32)N1c1cccc(Cl)c1 (configuration not stated) | inactive: 78%
87 | COc1cccc2c1cc1c(=O)n(CC(=O)N3CCN(c4ccccc4F)CC3)nc(C)n12 | inactive: 85%
